Where a name gives a salt, the structure may show the parent alone. Some of the results follow. Rule as the data show it: active = 0.5 or less and inactive = the rest. Many values rest on one well or one pass, so single values are uncertain.
Legend:
Settings in all cases: 50 µM; 24 h
[1] = system: HeLa VPS33A reporter cells; test: relative cell viability (CellMask signal) vs DMSO (fraction of DMSO); higher = less cytotoxic;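 also: primary screen of an FDA-approved drug library in HeLa reporter cells in 96-well format, CellMask signal normalized to DMSO-treated wells set as 1, under 0.5 deemed highly cytotoxic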
[2] = system: HeLa VPS33A R498W KI + HA-SDC1-FLAG; test: relative GAG core protein HA-SDC1 amount per cell number vs DMSO (fraction of DMSO); higher = more SDC1 (GAG core protein);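 also: HA-SDC1 level read out by In-Cell Western staining with an anti-HA antibody against the N-terminal tag, screening FDA-approved library drugs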
[3] = system: HeLa VPS33A KO + NLuc-VPS33A R498W; test: relative mutant VPS33A R498W amount (NanoLuc luminescence) vs DMSO (fraction of DMSO); HeLa model of a glycosaminoglycan (GAG) storage disease; KI is knock-in and KO knock-out; SDC1 is syndecan 1; higher = higher mutant VPS33A level;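 also: screen of an FDA-approved drug library, NanoLuc luminescence read after lysing the treated cells, taken as a measure of mutant VPS33A protein stability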

Structure (SMILES) | relative cell viability [1] | relative GAG core protein HA-SDC1 amount per cell number [2] | relative mutant VPS33A R498W amount [3]
NC(=O)CC[C@H](N)C(=O)O [L-Glutamine] | 1.11 | inactive: 1.54 | 0.725
O=C(CCCN1CC=C(n2c(=O)[nH]c3ccccc32)CC1)c1ccc(F)cc1 [Droperidol] | 1.03 | inactive: 0.801 | 1.02
CC(C)c1c(C(=O)Nc2ccccc2)c(-c2ccccc2)c(-c2ccc(F)cc2)n1CC[C@@H](O)C[C@@H](O)CC(=O)O [Atorvastatin Calcium] | 0.562 | inactive: 0.511 | 1.58
C=CC[N+]1([C@H]2C[C@H]3[C@@H]4CC[C@H]5C[C@H](O)[C@@H](N6CCOCC6)C[C@]5(C)[C@H]4CC[C@]3(C)[C@H]2OC(C)=O)CCCC1 [Rocuronium Bromide] | 1.5 | inactive: 0.837 | 1.02
COc1cc(Nc2ncc3c(n2)-c2ccc(Cl)cc2C(c2c(F)cccc2OC)=NC3)ccc1C(=O)O [MLN8237 (Alisertib)] | 0.792 | active: 0.409 | 0.336
Cn1c([N+](=O)[O-])cnc1COC(N)=O [Ronidazole] | 1.09 | inactive: 0.811 | 1.24
CC(C)(Oc1ccc(C(=O)c2ccc(Cl)cc2)cc1)C(=O)O [Fenofibric acid] | 1.11 | inactive: 0.93 | 1.23
Cc1c(O)c(=O)ccn1C [Deferiprone] | 0.972 | inactive: 0.603 | 1.34
COc1ccc2[nH]cc(CCNC(C)=O)c2c1 [Melatonin] | 1.19 | inactive: 1.24 | 1.66
Oc1ccc2ccccc2c1 [2-Naphthol] | 1.04 | inactive: 0.81 | 1.33
Cn1nnc(-c2ccc(-c3ccc(N4C[C@H](CO)OC4=O)cc3F)cn2)n1 [Tedizolid] | 1.14 | inactive: 1.05 | 0.675
O=S(=O)(c1cccc2c(O)nccc12)N1CCCNCC1 [Hydroxyfasudil hydrochloride] | 1.42 | inactive: 0.919 | 0.854
CC[C@H](C)[C@H](N)C(=O)O [(2S,3S)-2-Amino-3-methylpentanoic acid] | 0.946 | inactive: 0.911 | 1.67
C/C(O)=C(\C#N)C(=O)Nc1ccc(C(F)(F)F)cc1 [Teriflunomide] | 1.16 | inactive: 0.62 | 1.24
c1ccc(CN(CC2=NCCN2)c2ccccc2)cc1 [Antazoline HCl] | 0.912 | inactive: 0.783 | 0.943
N[C@@H](Cc1c[nH]c2ccccc12)C(=O)O [L-Tryptophan] | 1.03 | inactive: 0.586 | 1.28
O=c1ncn2nc(Sc3ccc(F)cc3F)ccc2c1-c1c(Cl)cccc1Cl | 0.947 | active: 0.456 | 0.231
C=CCc1ccc(O)c(OC)c1 [Eugenol] | 1.04 | inactive: 0.923 | 1.11
O=c1ccc2ccc(O)cc2o1 [Umbelliferone] | 0.957 | inactive: 0.805 | 0.87
CN1[C@@H]2CC[C@H]1C[C@@H](OC(=O)c1c[nH]c3ccccc13)C2 [Tropisetron] | 1.06 | inactive: 0.895 | 1.11
CCN1CCN(C(=O)N[C@@H](C(=O)N[C@@H]2C(=O)N3[C@@H]2SC(C)(C)[C@@H]3C(=O)O)c2ccccc2)C(=O)C1=O [Piperacillin Sodium] | 0.825 | inactive: 1.13 | 1.5

Structure (SMILES) | relative cell viability [1] | relative GAG core protein HA-SDC1 amount per cell number [2] | relative mutant VPS33A R498W amount [3]
Nc1nc2ccc(OC(F)(F)F)cc2s1 [Riluzole (hydrochloride)] | 0.901 | active: 0.343 | 0.524
C=CC(C)(O)CCC=C(C)C (stereo not drawn) [Linalool] | 0.977 | inactive: 0.846 | 1.32
COc1ccc2c(c1)c(CC(=O)OCC(=O)O)c(C)n2C(=O)c1ccc(Cl)cc1 [Acemetacin] | 1.16 | inactive: 1.07 | 1.18
CC(C(O)c1ccc(O)cc1)N1CCC(Cc2ccccc2)CC1 (stereo not drawn) [Ifenprodil Tartrate] | 0.924 | inactive: 0.532 | 0.796
O=C1Nc2ccccc2C1=O [Isatin] | 1.07 | inactive: 1.13 | 1.55
CCOC(=O)[C@H]1O[C@@H]1C(=O)N[C@@H](CC(C)C)C(=O)NCCC(C)C | 1.12 | inactive: 1.07 | 2.36
Cc1cc2c(s1)Nc1ccccc1N=C2N1CCN(C)CC1 [Olanzapine] | 1.01 | inactive: 0.903 | 0.993
CO/N=C(\C(=O)N[C@@H]1C(=O)N2C(C(=O)O)=C(Cn3ccc(=N)n3CCO)CS[C@H]12)c1csc(N)n1 [Cefoselis Sulfate] | 0.967 | inactive: 0.912 | 1.6
C[C@]12CC[C@@H]3c4ccc(O)cc4CC[C@H]3[C@@H]1CCC2=O [Estrone] | 1.09 | inactive: 1.28 | 0.887
O=C(NC[C@H](O)CO)c1ccncc1Nc1ccc(I)cc1F | 0.951 | inactive: 1.12 | 0.678
Nc1ccc(C(=O)O)cc1 [4-Aminobenzoic acid] | 1.23 | inactive: 0.744 | 1.15
OCCOCCN1CCN(C(c2ccccc2)c2ccc(Cl)cc2)CC1 (stereo not drawn) [Hydroxyzine 2HCl] | 1.06 | active: 0.32 | 0.602
Cc1nc(C(=O)NCC(=O)O)c(O)c2ccc(Oc3ccccc3)cc12 | 1.03 | inactive: 1.08 | 0.961
O=C(O)c1cccnc1 [Nicotinic Acid] | 0.972 | inactive: 0.994 | 1.37
C[C@]12CCC(=O)C=C1[C@@H]1C[C@@H]1[C@H]1[C@@H]3[C@@H]4C[C@@H]4[C@@]4(CCC(=O)O4)[C@@]3(C)CC[C@@H]12 [Drospirenone] | 1.28 | inactive: 0.619 | 1.12
CC(C)=CCC/C(C)=C/CC/C(C)=C/CSc1ccccc1C(=O)O [Salirasib] | 0.917 | active: 0.479 | 0.784
S=C(NCc1ccc2c(c1)OCO2)N1CCN(c2ncnc3c2oc2ccccc23)CC1 [Amuvatinib (MP-470, HPK 56)] | 1.05 | inactive: 1.46 | 0.628
CC(C)(CO)[C@@H](O)C(=O)NCCCO [Dexpanthenol] | 1.03 | inactive: 0.847 | 1.37
COc1cc2nccc(Oc3ccc(NC(=O)NC4CC4)c(Cl)c3)c2cc1C(N)=O [Lenvatinib (E7080)] | 1.12 | inactive: 1.31 | 0.357
O=[N+]([O-])c1ccc(O)c2ncccc12 [Nitroxoline] | 1.07 | inactive: 0.548 | 5.76
[Cl-].[Cs+] [Cesium chloride] | 1 | inactive: 1.63 | 1.32

Structure (SMILES) | relative cell viability [1] | relative GAG core protein HA-SDC1 amount per cell number [2] | relative mutant VPS33A R498W amount [3]
Nc1nc(F)nc2c1ncn2[C@@H]1O[C@H](COP(=O)(O)O)[C@@H](O)[C@@H]1O [Fludarabine Phosphate (Fludara)] | 1.43 | inactive: 0.883 | 0.589
O=C(O)c1ccc(O)cc1 [4-Hydroxybenzoic acid] | 1.08 | inactive: 0.805 | 1.17
OCC1=C[C@@H](O)[C@@H]2C=CO[C@@H](O[C@@H]3O[C@H](CO)[C@@H](O)[C@H](O)[C@H]3O)[C@H]12 [Aucubin] | 0.96 | inactive: 0.752 | 1.28
O=c1[nH]c(=O)n([C@H]2C[C@H](O)[C@@H](CO)O2)cc1I [Idoxuridine] | 0.866 | inactive: 1.13 | 2.88
O=C1N=C(O)NC1(c1ccccc1)c1ccccc1 [Phenytoin sodium] | 1.03 | inactive: 0.905 | 1.53
CC(=O)SCC(Cc1ccccc1)C(=O)NCC(=O)OCc1ccccc1 (stereo not drawn) [Racecadotril] | 0.908 | inactive: 1.05 | 1.29
Cc1cc(C)cc(NC(=O)Cc2ccc(OC(C)(C)C(=O)O)cc2)c1 [Efaproxiral Sodium] | 1 | inactive: 0.827 | 1.06
CC(C)NC[C@H](O)COc1ccc(CCOCC2CC2)cc1 [Levobetaxolol HCl] | 0.946 | inactive: 1.09 | 1.35
CCCCCCCCCCC(=O)O [Undecanoic Acid] | 0.966 | inactive: 0.778 | 1.5
CCOC(=O)c1cc(O)c(O)c(O)c1 [Ethyl gallate] | 0.97 | inactive: 0.874 | 1.18
Cc1nc(C)c(C)nc1C [Ligustrazine Hydrochloride] | 1.06 | inactive: 0.911 | 1.25
COc1c(N2CCNC(C)C2)c(F)cc2c(=O)c(C(=O)O)cn(C3CC3)c12 (stereo not drawn) [Gatifloxacin] | 1.43 | inactive: 0.904 | 1.19
CN(C)CCC(c1ccc(Br)cc1)c1ccccn1 (stereo not drawn) [Brompheniramine hydrogen maleate] | 1.12 | inactive: 1.18 | 1.05
CC(C)NCC(O)COc1ccc(CCOCC2CC2)cc1 (stereo not drawn) [Betaxolol HCl] | 1.24 | inactive: 0.918 | 1.26
O=c1c(O)c(-c2ccc(O)cc2)oc2cc(O)cc(O)c12 [Kaempferol] | 0.935 | inactive: 0.652 | 0.184
Cc1ccc(-n2[nH]c(C)c(N=Nc3cccc(-c4cccc(C(=O)O)c4)c3O)c2=O)cc1C [Eltrombopag Olamine] | 0.819 | active: 0.346 | 1.25
CC[C@H](C)[C@@H]1NC(=O)[C@H](Cc2ccc(OC)cc2)NC(=O)CCCSC[C@@H](C(=O)N2CCC[C@H]2C(=O)N[C@@H](CC(C)C)C(=O)NCC(N)=O)NC(=O)[C@H](CC(N)=O)NC(=O)[C@H](CCC(N)=O)NC1=O [Carbetocin] | 1.1 | inactive: 0.934 | 1.25
CC(=O)N[C@@H](C=O)[C@@H](O)[C@H](O)[C@H](O)CO [N-acetyl-D-Glucosamine] | 0.95 | inactive: 0.852 | 1.5
OC[C@H]1O[C@@H](c2ccc(Cl)c(Cc3ccc(O[C@H]4CCOC4)cc3)c2)[C@H](O)[C@@H](O)[C@@H]1O | 0.97 | inactive: 1.23 | 1.28

From the supplement of paper PMC12355420
